The supplement of paper PMC4166925
± gives the standard deviation of the averaged measurements. The full ranking holds about 33,000 sequences; the median of “E-score (dimensionless, -0.5 to 0.5)” is about -0.046, and the highest 2% start at about 0.36. The list shows a part of the results.

test system: T1, SpTbr T-box DNA-binding domain (GST fusion); experiment: PBM E-score of 8-mer (E-score (dimensionless, -0.5 to 0.5)); Tbr is Tbrain of the sea star Patiria miniata (Pm) or the sea urchin Strongylocentrotus purpuratus (Sp); higher = stronger binding preference; most listed sequences are background and not binding sites; conditions: the construct has about 5 more residues each side
T1 sequence: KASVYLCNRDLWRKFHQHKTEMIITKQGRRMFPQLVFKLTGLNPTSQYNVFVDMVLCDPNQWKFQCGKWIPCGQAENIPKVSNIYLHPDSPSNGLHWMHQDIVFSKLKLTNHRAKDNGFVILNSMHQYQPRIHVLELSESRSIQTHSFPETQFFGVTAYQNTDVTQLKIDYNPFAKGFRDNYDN
Procedure: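 Universal protein-binding microarray (Agilent AMADID 016060, 60-bp probes with a 35-bp variable region) incubated with 200 nM GST-fused Strongylocentrotus purpuratus Tbr T-box DNA-binding domain (residues 362-554) in PBS pH 7.5. Scored for every ungapped 8-mer (given with its reverse complement) as E-score (range -0.5 to 0.5; >0.45 counts as bound) and Z-score of median probe intensity. Two replicate arrays (datasets 1 and 2).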
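Also: protein at 200 nM in PBS on universal double-stranded arrays.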

| Sequence | PBM E-score of 8-mer |
| --- | --- |
| CAAATCTC | 0.106 ± 0.047 |
| GCACAACC | -0.0068 ± 0.068 |
| CAGTTGCC | 0.111 ± 0.01 |
| GAAACGCC | 0.11 ± 0.026 |
| AGTTTCGG | -0.357 ± 0.028 |
| TGCAGCAA | -0.15 ± 0.046 |
| AGACAGGA | -0.159 ± 0.04 |
| CCGGGGGA | -0.225 ± 0.036 |
| GAGGCATC | -0.224 ± 0.072 |
| ATCGCTGC | 0.0231 ± 0.034 |
| ATGCAATG | -0.202 ± 0.0094 |
| CATTATAC | 0.119 ± 0.022 |
| CTCATTCA | 0.019 ± 0.071 |
| ATGAGCCC | -0.216 ± 0.036 |
| GCGTTGGA | 0.107 ± 0.067 |
| CCAGCCTC | -0.228 ± 0.12 |
| CTTAAGAA | -0.0507 ± 0.029 |
| AAACGGAC | -0.158 ± 0.0066 |
| GAGCCTGC | -0.0257 ± 0.039 |
| TAAAGCCA | -0.263 ± 0.037 |
| TCATGTCA | -0.00108 ± 0.05 |
| CCAAGTCC | -0.0836 ± 0.022 |
| AAGGCGCC | 0.224 ± 0.011 |
| CTGGGATC | -0.126 ± 0.032 |
| GCCCGGAA | -0.167 ± 0.014 |

| Sequence | PBM E-score of 8-mer |
| --- | --- |
| CAGAATAG | -0.224 ± 0.025 |
| ACGTCCTG | 0.0542 ± 0.055 |
| CTAACATC | -0.0989 ± 0.068 |
| ACAAGGCT | 0.0374 ± 0.071 |
| CCACCGCG | 0.0782 ± 0.0015 |
| TACGTCGA | -0.0607 ± 0.029 |
| TACTCCGA | -0.0262 ± 0.0085 |
| CCAGTGAG | -0.224 ± 0.14 |
| CCTGTCCA | 0.0557 ± 0.043 |
| AATCGTCC | -0.238 ± 0.015 |
| CGATGCCC | -0.102 ± 0.011 |
| ATTGGAGA | -0.278 ± 0.019 |
| AATTGGAA | 0.0127 ± 0.0018 |
| CGGTGCGA | 0.339 ± 0.0046 |
| ACAACTCA | 0.216 ± 0.036 |
| CCAGACGG | -0.0627 ± 0.096 |
| AATTCGAT | -0.0799 ± 0.002 |
| GTACTCAA | -0.114 ± 0.041 |
| ACGTGGGA | 0.203 ± 0.026 |
| AGGCTATC | -0.0294 ± 0.012 |
| AGAGGTTA | -0.141 ± 0.0069 |
| AATCACCG | 0.0191 ± 0.03 |
| AATAGGAA | -0.171 ± 0.049 |
| TGCCGAAA | 0.0892 ± 0.013 |
| CCGCTATA | 0.102 ± 0.055 |

| Sequence | PBM E-score of 8-mer |
| --- | --- |
| GTAGCCAA | -0.0866 ± 0.0081 |
| CCAGAGAG | -0.184 ± 0.12 |
| CGCTGGCC | -0.032 ± 0.027 |
| AGTATAAG | -0.15 ± 0.049 |
| CGACAGTC | 0.184 ± 0.048 |
| CGAGAGTA | 0.0304 ± 0.018 |
| AGCAGCTG | 0.148 ± 0.0082 |
| AAACCGTT | 0.025 ± 0.032 |
| GTAGGCGA | 0.117 ± 0.029 |
| CAGTGTGC | 0.106 ± 0.0063 |
| ATAAGATA | -0.122 ± 0.037 |
| AGGATGGC | -0.0145 ± 0.041 |
| ACACTCCG | 0.367 ± 0.023 |
| CAGAGTGA | -0.0823 ± 0.057 |
| AACTCGAT | 0.0475 ± 0.082 |
| CTCATTGA | 0.032 ± 0.034 |
| AAGACCAC | -0.0362 ± 0.12 |
| CGATAACG | 0.201 ± 0.0052 |
| ACCAAAAT | -0.0134 ± 0.0022 |
| CATGCATC | -0.119 ± 0.13 |
| ACCCCCCC | -0.226 ± 0.0096 |
| ACCCCGGC | 0.0161 ± 0.028 |
| CTCAAGTA | 0.0665 ± 0.065 |
| AGGCCAGC | -0.0726 ± 0.023 |
| GATAACGC | 0.288 ± 0.011 |

| Sequence | PBM E-score of 8-mer |
| --- | --- |
| CAGATACA | 0.0493 ± 0.047 |
| TAGGTACA | -0.3214 ± 0.0011 |
| CAACATCA | 0.0114 ± 0.034 |
| CCTGCGGA | -0.0459 ± 0.096 |
| CGCTGCCA | 0.195 ± 0.025 |
| GTCTTTGA | -0.143 ± 0.029 |
| CCACGATC | -0.062 ± 0.036 |
| ACGTTTAT | -0.0919 ± 0.051 |
| AGCAGACG | -0.0688 ± 0.033 |
| GATGAGGA | -0.159 ± 0.0045 |
| GGATTGAA | -0.143 ± 0.059 |
| AGGCGTTC | 0.125 ± 0.024 |
| ATTCGAGC | -0.0775 ± 0.049 |
| TATAGACA | 0.00469 ± 0.045 |
| GTATGAAA | -0.216 ± 0.12 |
| GGGGGTAA | -0.19 ± 0.0068 |
| AAGTTAGT | -0.13 ± 0.0072 |
| ACAGGGTA | -0.155 ± 0.051 |
| GGGGGGGA | -0.275 ± 0.03 |
| AAGTAACG | 0.0593 ± 0.0058 |
| TCACATGA | 0.14 ± 0.0023 |
| GAATACGA | -0.0226 ± 0.042 |
| GGGGACAA | -0.147 ± 0.094 |
| AACTACTG | -0.12 ± 0.084 |
| CACGAGTA | -0.0718 ± 0.016 |

| Sequence | PBM E-score of 8-mer |
| --- | --- |
| ATGGATAG | -0.183 ± 0.029 |
| AGTTGCGC | 0.13 ± 0.063 |
| ATAGACAA | -0.2 ± 0.036 |
| CCCCTGCC | -0.311 ± 0.019 |
| AACAGGGT | -0.0954 ± 0.061 |
| AGTTTAAT | -0.0467 ± 0.1 |
| TCTTGGCA | 0.0168 ± 0.0054 |
| AATCTAAG | -0.234 ± 0.034 |
| AAACCGCT | -0.032 ± 0.035 |
| ACATGGTC | -0.202 ± 0.025 |
| CCTGAGCC | -0.22 ± 0.02 |
| CCAACATC | 0.0244 ± 0.019 |
| AAACGAGC | -0.112 ± 0.052 |
| ACACGTCT | 0.342 ± 0.0038 |
| ATTCACCA | 0.052 ± 0.022 |
| CTTGTACA | -0.0795 ± 0.0086 |
| CTACACCA | 0.116 ± 0.0061 |
| ACGTGTGG | 0.416 ± 0.00045 |
| CTCGGCAC | 0.229 ± 0.012 |
| CGTTCTGC | -0.0627 ± 0.041 |
| ACCAAGCC | -0.13 ± 0.029 |
| AGTTGTGG | 0.164 ± 0.06 |
| AAGGCTAC | -0.147 ± 0.074 |
| CCCAGAAA | -0.216 ± 0.045 |
| GGGCAAAC | -0.205 ± 0.043 |

| Sequence | PBM E-score of 8-mer |
| --- | --- |
| TAGCCGGA | -0.13 ± 0.03 |
| AACGACAG | -0.00899 ± 0.00023 |
| GACGCCAA | 0.229 ± 0.018 |
| GAAGAGTA | -0.126 ± 0.005 |
| CCAAGCTA | -0.14 ± 0.026 |
| AAATAGAG | -0.0872 ± 0.04 |
| CGGGAACA | 0.128 ± 0.014 |
| CCGATTTA | -0.187 ± 0.07 |
| ACCTAAGA | -0.115 ± 0.051 |
| ACAAATCT | 0.0327 ± 0.015 |
| ATACCATG | -0.114 ± 0.05 |
| AGGAATAA | -0.191 ± 0.054 |
| ACCCTGCC | 0.116 ± 0.088 |
| GGCTCGCA | 0.137 ± 0.038 |
| ATTGGAAG | -0.328 ± 0.053 |
| GCACAATA | -0.0327 ± 0.036 |
| GATGCGAA | 0.202 ± 0.066 |
| ATGTATCC | -0.195 ± 0.041 |
| CGACTTAA | 0.16 ± 0.029 |
| CGAACTGC | 0.0742 ± 0.014 |
| GGCAATAA | 0.0317 ± 0.016 |
| CTCCTGCC | -0.0668 ± 0.12 |
| AGAAACTG | -0.216 ± 0.0078 |
| TGTCGAAA | 0.158 ± 0.036 |
| AGTAAGGG | -0.133 ± 0.026 |

| Sequence | PBM E-score of 8-mer |
| --- | --- |
| ATCTAGTG | -0.0127 ± 0.054 |
| CAGATTGA | -0.076 ± 0.021 |
| CAATAGTG | 0.117 ± 0.0084 |
| GGTGGAGA | 0.0705 ± 0.0099 |
| CTGGTGAC | 0.162 ± 0.074 |
| GGAAAGCA | -0.0208 ± 0.033 |
| AGGGGTGG | 0.147 ± 0.069 |
| GATCAAGC | -0.0785 ± 0.064 |
| CAAGACTG | -0.194 ± 0.02 |
| CATCCGTA | -0.172 ± 0.066 |
| GAGCACCA | -0.0444 ± 0.098 |
| CACACGTG | 0.383 ± 0.0078 |
| CCGCCAAG | 0.1155 ± 0.00084 |
| CGCCTGGC | 0.187 ± 0.036 |
| ACAAGACG | -0.0802 ± 0.091 |
| GGGATGAA | -0.231 ± 0.0083 |
| AAAACTTC | -0.0919 ± 0.018 |
| AGTGCTTC | -0.0466 ± 0.033 |
| GAAGGTGA | 0.348 ± 0.035 |
| ACTACTGA | -0.275 ± 0.016 |
| AGCATTAC | -0.167 ± 0.045 |
| ATAAACCA | -0.222 ± 0.084 |
